Values marked as one replicate rest on one cluster of the flow cell; about a third of the high ones do not repeat.
Test system: ATP
Experiment: switch fluorescence ratio, 500 uM ATP over buffer (Cy3 cluster intensity, sum of 5 cycles each) (fold (ratio)); higher = stronger signal-on switching upon ATP binding; sequences stand for … in TCGTCGGCAGCGTCAGATGTGTATAAGAGACAGTTTTTTTTTTTTTTTTTTTTTTTTT…TC
Conditions: aptamer strand: ATP DNA aptamer (quencher-CACCTGGGGGAGTATTGCGGAGGAAGG + anchor), 100 nM annealed; ATP concentration: 500 uM; one replicate
In short: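 Clusters carrying Cy3-labelled switching strands on a modified Illumina MiSeq flow-cell were annealed to 100 nM quencher-labelled ATP aptamer and imaged in selection buffer. They were imaged again after 15 min with 500 uM ATP at 22 °C, over five buffer/ATP cycles with NaOH stripping and re-annealing in between. For each cluster, the fluorescence ratio is the summed Cy3 intensity of the target cycles divided by that of the buffer cycles, averaged per switch-domain sequence. Clusters outside 100-1000 RFU were left out.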
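Further: ATP exposure 15 min at 22 °C before imaging.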

Row | Sequence | switch fluorescence ratio
1 | ATGATAACTA | 0.997
2 | TACCCTAAGC | 1.05
3 | AAGACAACT | 0.99
4 | TATAGTTTTA | 0.982
5 | CCGTACTGAT | 1.02
6 | AGACGGCAAT | 1.81
7 | TATGGTCCAA | 0.991
8 | TCTCTATCAG | 0.992
9 | TGTAGGGCGG | 1.01
10 | GGTGATGGAT | 0.984
11 | CGTGCCAGGA | 1.02
12 | GATGTTTTTG | 0.977
13 | TTCCCCAAAC | 1.04
14 | CTCACATTAT | 1.06
15 | CTGAGAGGAG | 1.02
16 | GGGGGCAAGT | 0.933
17 | CGGAAAGTTA | 0.983
18 | ACACTTCACC | 1.33
19 | GCTTAAGCGC | 0.992
20 | GTTGTATTGC | 0.992
21 | TCAATTGTGA | 0.956
22 | GGGCGTTAGT | 1
23 | CAATTCAGGG | 0.99

Row | Sequence | switch fluorescence ratio
24 | TTCACTGAAA | 1
25 | GCGGTTGTAA | 1.04
26 | ATGAATCACT | 1.01
27 | TGTTCACGTC | 0.987
28 | CGAGTTGCCA | 0.999
29 | ACGGTGCCCT | 1.08
30 | TGCCCCCCGG | 0.999
31 | CATCGGTGAT | 1.02
32 | ATTATCTGAT | 1.01
33 | TTCGACTAGG | 0.982
34 | AGAAACAAA | 1.03
35 | GACTTACTAG | 1.11
36 | GAGGCCGTAT | 1.06
37 | CTATTGGTGA | 0.991
38 | CGTTTTCTGC | 1.15
39 | AGCATTGCCA | 0.998
40 | AGGACACCCA | 1.2
41 | GAACATAAGT | 1.08
42 | GCAACGTATT | 1.07
43 | GAGTATGGGC | 0.978
44 | ATAGCTCGTC | 1.03
45 | TATGGGAGTA | 0.958
46 | GTCGGTGGGG | 0.988

Row | Sequence | switch fluorescence ratio
47 | TGACTGATCA | 0.999
48 | TTGCCTCCAG | 1.12
49 | TGCCCAATCT | 1.07
50 | ACGTTATTCA | 1.15
51 | CGTTTACATT | 0.97
52 | GTTATTATAA | 1
53 | TTAGGACCTA | 1.05
54 | AGTTGTTTGC | 0.98
55 | ACAGGGCAGC | 1.02
56 | ACAGTCCGAA | 1.04
57 | ACGTTGTTTA | 1.04
58 | TTAAACGGCC | 1.04
59 | GCTGATTATT | 0.998
60 | ACTTGGGGG | 1.01
61 | ACAGCTGGAT | 1.04
62 | AACATACAAG | 1.24
63 | TCGGGGTCGA | 1.05
64 | CCATGCCTCT | 1.01
65 | GCGAGCATGT | 0.999
66 | TATGGTATAT | 1.02
67 | CAGGAATTTT | 1.03
68 | GTAGGTCGGC | 1.09
69 | AGAGATTAGA | 1.02

Row | Sequence | switch fluorescence ratio
70 | TTCGAACAGG | 1.07
71 | TATCTGGAGC | 1.02
72 | CTAATACTGA | 0.998
73 | CTTCGAGTTC | 1.21
74 | ATTTGATGAT | 1.01
75 | GGTTGATTCT | 0.981
76 | AATTAGGTAT | 0.975
77 | GATAGGTCA | 0.992
78 | CACTGAGC | 0.992
79 | CCTGCAAAAT | 2.31
80 | AGGTTGCTAG | 0.991
81 | AATGCACTTG | 1.04
82 | GGCAGTTCCG | 0.998
83 | CGATTAGCGG | 1.02
84 | GCAAAATT | 0.962
85 | ATCGTACTAG | 1.03
86 | AAATATACAG | 1
87 | TATGCCGCGT | 0.973
88 | CGGACACAT | 1.11
89 | GCAAATGCTT | 1.05
90 | TCCTTAGACC | 0.993
91 | GTTGATATGG | 1
92 | ATAGGAATAA | 0.977

Row | Sequence | switch fluorescence ratio
93 | TGTATGAACG | 1.03
94 | AGTAGCTACA | 1
95 | GAGGATATAT | 0.985
96 | TACTAAATGT | 1.02
97 | TTTCAGGGAT | 0.985
98 | CGCCGATA | 1.02
99 | GCACCTCTGG | 1.06
100 | TCTACCTATC | 1.04
101 | TTGCACCAG | 1.05
102 | CGGTGCCGAA | 0.902
103 | TTAGTGACGG | 0.966
104 | TTCACAACTG | 1.02
105 | GTAACCCTGC | 1.06
106 | CGAAACATTA | 1.06
107 | AGCTGGTGCG | 1.04
108 | GCGGCGTA | 0.945
109 | CCATCACAT | 0.996
110 | TTGCCAGTGC | 1.25
111 | TAGCGCATTC | 2.42
112 | TATCTGCATG | 1.94
113 | AAAGTAGGTG | 0.975
114 | ACGACTTGTT | 1.01
115 | TTTGAGCT | 1.06

Row | Sequence | switch fluorescence ratio
116 | ACCCGATAGA | 1.04
117 | GCACATAGTG | 0.991
118 | GTTGTGAGGT | 0.989
119 | CAAGAATCGC | 0.974
120 | TCCCTGGGTC | 1.05
121 | CCACCAACGG | 1.06
122 | CAGATCTCCC | 1.12
123 | ATTCGCTGTT | 1.03
124 | CAGCGCTG | 1
125 | TGCAGAAGGA | 1.04
126 | GATCGACAGT | 1.02
127 | GCCTAATAA | 1.07
128 | AACCTGCTTA | 1.03
129 | GTTGGTTAAG | 0.992
130 | GGTAAACCCT | 1.14
131 | TTCGACAGCA | 1.1
132 | ATCGGCTGAG | 1
133 | GAGAAATCAG | 1.01
134 | ATCTGGATAC | 1.47
135 | AGAAGTAGGT | 0.992
136 | ATGCTGCATT | 1.03
137 | TCTATGTAGT | 0.972
138 | GTTCTCCACA | 1.01

Row | Sequence | switch fluorescence ratio
139 | CGGTGATGCA | 1.07
140 | ACTGAGTGTC | 1.02
141 | CGCTTAAGG | 0.997
142 | AGATCTCGCC | 1.05
143 | AAGCGATACG | 2.47
144 | CAGAGCTGCG | 1.03
145 | GTTCATGTAA | 0.972
146 | TCATCTAGGG | 1
147 | GCATATTCTT | 0.991
148 | CTGAGGGAAT | 1.01
149 | ATTAATATAA | 0.976
150 | GAAGGATTTT | 0.95
151 | AATATGAGGA | 1.02
152 | CTACTTTTGG | 0.978
153 | ATGCTAGGAT | 0.997
154 | TTTGCCAGGT | 1.06
155 | TAATGTTCT | 0.983
156 | GCAATTCAAA | 1.04
157 | AACCCCGTGG | 1.04
158 | CTCATTGGAA | 1.04
